System: mice
Test: DiI-labeled LNP uptake in muscle and local draining lymph node cells (flow cytometry)
Conditions: female BALB/cJ mice, IM, fluorescently labeled LNPs
Description: Immune cell uptake, expression, and germinal center responses. To understand the factors contributing to the enhanced vaccine response of AMG1541 LNPs, the local biodistribution and resultant protein expression following intramuscular injection was characterized. Immune cell uptake following vaccination is the first step in initiating vaccine responses as it activates innate immune pathways, facilitating further immune cell recruitment and activation.^40-42 The uptake of LNPs was characterized by dosing female BALB/cJ mice IM with fluorescently labeled AMG1541 or SM-102 LNPs and then isolating cells from the muscle and local draining lymph node (LDLN) (FIGS. 15A-15C).
LNP biodistribution and expression characterization.

`CCCCCC/C=C\CCCC(=O)OCC(O)CN1CCN(CC(O)COC(=O)CCC/C=C\CCCCCC)CCN(CC(O)COC(=O)CCC/C=C\CCCCCC)CCN(CC(O)COC(=O)CCC/C=C\CCCCCC)CCN(CC(O)COC(=O)CCC/C=C\CCCCCC)CCN(CC(O)COC(=O)CCC/C=C\CCCCCC)CC1` (centres unmarked) [AMG1541] was tested, and the “LNP uptake in cells isolated from muscle versus SM-102” value was “higher uptake in CD45- cells, macrophages, and neutrophils” and the “LNP uptake in cells of the local draining lymph node versus SM-102” value was “significantly higher uptake in several key APC subsets”.

Reference: US20250205158A1, “BIODEGRADABLE LIPIDS AND FORMULATIONS FOR DELIVERY OF MRNA” (Massachusetts Institute of Technology, priority 2023, published 2025)
